Results: PubChem BioAssay AID651820 (National Center for Advancing Translational Sciences (NCATS), 2012)
Screen size: about 340,000 compounds; about 12,000 (3.5%) were called active. Inconclusive results, whose numbers are uncertain, are shown with a selection of clear calls. Calls follow the shape of the dose curve; as a rule, active = well fitted inhibition curve with a large enough effect; inconclusive = small, poorly fitted or top-dose-only effect, or another doubt; inactive = no such curve, though single readings can be large or run the other way. Potencies of inconclusive entries are left out as doubtful fits.
% is scaled to controls: 0 for no effect and ±100 for the full control effect; potency is read from the fitted curve at half-maximal effect; tags tell the direction and shape of the fitted curve.

Test: qHTS Assay for Inhibitors of Hepatitis C Virus (HCV)
Details: Huh7.5.1 HCVcc-Cre (HCVcc is cell-culture hepatitis C virus) infection, luciferase reporter, 44 h; activity change, negative = inhibition: at 41.8 µM (top of the series) unless noted
Summary of the method: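 Infectious HCV cell culture screen: compound-treated cells (1,000/well, pre-plated 4 h) are infected with HCVcc-Cre at roughly 0.5 moi and grown 44 h. Infection is quantified by luciferase signal after 15 min substrate incubation at room temperature.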
In the case of `O=C(COc1ccccc1)Nc1sc2c(c1C(=O)NCc1cccnc1)CCCC2`, the Potency is reported as inconclusive [inhibitor, full curve].
For `CCOC(=O)CN(C(=O)COc1ccc2c(C)cc(=O)oc2c1)c1ccc(OCC)cc1`, the “activity change, negative = inhibition” value was inactive: -3.5%.
In the case of `Cc1noc(C)c1COc1cccc(C(=O)Nc2ccccc2)c1`, the Potency is reported as inconclusive [inhibitor, single point].
In the case of `NC(=O)c1ccccc1NC(=S)NC(=O)CCc1ccccc1`, the “activity change, negative = inhibition” value is reported as inactive: 9.82%.
In the case of `COc1ccc(NC(=O)CSc2ncn(-c3ccccc3)n2)cc1Cl`, the Potency is reported as inconclusive [inhibitor, full curve, poor fit].
In the case of `CSc1ccccc1OCc1cc(C(=O)N2CCCC2c2nonc2C)no1` (stereo not drawn), the Potency is reported as inconclusive [inhibitor, partial curve].
In the case of `CC(C)(C)C1CCC(CN2C(Nc3ccccc3)=NC[C@@H]2Cc2ccccc2)CC1` (stereo partly drawn), the Potency is reported as inconclusive [inhibitor, single point].
In the case of `CCOc1ccccc1NC(=O)Nc1ccc(OC)nc1`, the Potency is reported as inconclusive [inhibitor, partial curve].
In the case of `NNc1nnc2c3cc(F)ccc3n(CCc3ccccc3)c2n1`, the Potency is reported as inconclusive [inhibitor, single point].
For `COC(=O)c1ccc(NC(=O)CN(c2ccc(C)cc2)S(=O)(=O)c2c(C)n[nH]c2C)cc1`, the Potency was inconclusive [inhibitor, single point].
In the case of `COc1ccc(/C=N/NC(=O)c2nn(C)cc2Br)cc1CSCc1ccco1`, the “activity change, negative = inhibition” value is reported as inactive: -11.5%.
For `Cc1ccc(CN2CCN(/N=C/c3ccco3)CC2)c(C)c1`, the Potency was inconclusive [inhibitor, full curve, poor fit].
With `CCCn1c(N)c(C(=O)CSc2nnc(Cc3ccccc3)o2)c(=O)n(C)c1=O` the Potency was active: 10 µM.
For `COCCN(Cc1cc2cc3c(cc2nc1Cl)OCO3)C(=O)c1ccc(C)cc1`, the Potency was inconclusive [inhibitor, partial curve].
In the case of `COc1cc2c(cc1NC(=O)COc1ccc3ccccc3c1)oc1ccccc12`, the “activity change, negative = inhibition” value is reported as inactive: -6.44%.
For `N=c1c(C(=O)NCCN2CCOCC2)cc2c(=O)n3ccccc3nc2n1CCc1ccccc1`, the Potency was inconclusive [inhibitor, single point].
With `CCc1sc(NC(=O)C(C)C)nc1-c1ccccc1` the “activity change, negative = inhibition” value was inactive: -5.6%.
In the case of `O=C(NCCOc1cccnc1)C1CCC(=O)N(Cc2ccccc2F)C1` (stereo not drawn), the “activity change, negative = inhibition” value is reported as inactive: 6.25%.
For `CCCN1CCC(NC(=O)Nc2cc(Cl)ccc2OC)CC1`, the “activity change, negative = inhibition” value was inactive: -29.9%.
For `Cc1onc(-c2c(Cl)cccc2Cl)c1COC(=O)c1ccc(Cl)cc1`, the Potency was inconclusive [inhibitor, single point].
In the case of `COc1ccccc1-n1nnnc1SCc1cc2c(cc1Br)OCO2`, the Potency is reported as inconclusive [inhibitor, single point].
With `CCc1ccc(NC(=O)c2ccc(S(=O)(=O)NCc3cccnc3)cc2)cc1` the Potency was inconclusive [inhibitor, partial curve].
In the case of `CCn1cc(SCC(=O)Nc2cc(C)on2)c2ccccc21`, the Potency is reported as inconclusive [inhibitor, single point].
With `COc1ccc([C@]2(C(C)C)ON(c3ccccc3C(F)(F)F)C2=O)cc1` the Potency was inconclusive [inhibitor, single point].
For `CCOc1ncccc1C(=O)Nc1ccc(Cl)c(S(=O)(=O)N2CCCC2)c1`, the Potency was inconclusive [inhibitor, partial curve].
For `CCC(CC)C(=O)Nc1cccc(/C(C)=N\NC(=O)c2ccc(C)s2)c1`, the Potency was inconclusive [inhibitor, partial curve].
With `CCOc1ccccc1OCCCC(=O)Nc1cccc(-n2cnnn2)c1C` the Potency was inconclusive [inhibitor, single point].
For `Cc1cc(C)c2cc3c(N)c(C(=O)N4CCOCC4)sc3nc2c1`, the Potency was inconclusive [inhibitor, single point].
With `CC(C)C[C@H](NC(=O)c1[nH]cnc1C(=O)N[C@@H](C)c1ccccc1)C(=O)OC(C)(C)C` the “activity change, negative = inhibition” value was inactive: 0.69%.
For `CCOC(=O)Cn1c(CN2CCN(C(c3ccccc3)c3ccccc3)CC2)nc2c1c(=O)n(C)c(=O)n2C`, the Potency was inconclusive [inhibitor, single point].
With `O=C(Nc1ccc(Cl)cc1)N(C1=NCCC1)c1ccc(OC(F)F)cc1` the Potency was inconclusive [inhibitor, single point].
With `O=C(Nc1nccs1)c1cc(-c2ccccc2)nc2ccccc12` the Potency was inconclusive [inhibitor, single point].
For `CCCN(CC(=O)Nc1ccccc1C)C(=O)C1CC(=O)N(c2ccc(CC)cc2)C1` (stereo not drawn), the “activity change, negative = inhibition” value was inactive: -2.84%.
In the case of `CCOc1ccc(Oc2ccc(S(=O)(=O)N3CCOCC3)cc2NC(=O)C2=COCCO2)cc1`, the Potency is reported as inconclusive [inhibitor, partial curve].
For `Cc1cccc(OC(C)C(=O)Nc2ccccc2C(=O)N2CCCCC2)c1` (stereo not drawn), the Potency was inconclusive [inhibitor, single point].
For `Cc1nnc(SCC2=C(C(=O)O)N3C(=O)C(NC(=O)COc4ccccc4)C3SC2)s1` (stereo not drawn), the “activity change, negative = inhibition” value was inactive: -5.13%.
In the case of `CCOc1ccccc1C1c2[nH]c3ccccc3c2C[C@H]2C(=O)N(C3CCN(Cc4ccccc4)CC3)CC(=O)N12` (stereo partly drawn), the Potency is reported as inconclusive [inhibitor, single point].
With `O=C(Cn1nc(-c2ccccc2F)ccc1=O)Nc1ccc(S(=O)(=O)N2CCCCCC2)cc1` the Potency was inconclusive [inhibitor, partial curve].
For `COc1ccc([N+](=O)[O-])cc1NCc1ccccc1`, the Potency was active: 6.31 µM.
For `CCn1cc(CN2CCC(C(=O)Nc3ccc(Oc4ccccc4F)cc3)CC2)c(C)n1`, the Potency was active: 2.82 µM.
With `O=C(CSc1nc(-c2cccs2)cc(C(F)(F)F)n1)NCCCn1ccnc1` the Potency was inconclusive [inhibitor, partial curve].
With `COc1cccc(CNC(=O)C(=O)NCCC2CCCCN2S(=O)(=O)c2ccccc2)c1` (stereo not drawn) the Potency was inconclusive [inhibitor, single point].
With `CCCCC(CC)COC(=O)C(C#N)=C(c1ccccc1)c1ccccc1` (stereo not drawn) the Potency was inconclusive [inhibitor, partial curve].
